The whole screen tested about 16,000 compounds, of which about 120 (0.75%) were called active. Inconclusive results (about 4%) are left out. Calls come from the whole dose curve; as a rule, active = well fitted inhibition curve with a large enough effect; inconclusive = small, poorly fitted or top-dose-only effect; inactive = no such curve, though single readings can be large or run the other way. Some of the results follow.
Each compound was assayed against Rap guanine nucleotide exchange factor 3 (Homo sapiens) (UniProt O95398) (assay: Validation qHTS for antagonist of cAMP-regulated guanine nucleotide exchange factor 3 (EPAC1)). Conditions: EPAC1 Rap1B-BODIPY-GDP exchange, fluorescence; series mostly up to 150 µM; activity change, negative = inhibition: at the top concentration.
Procedure, shortened: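 Nucleotide exchange followed as fluorescence loss when BODIPY-GDP leaves Rap1B (480 nm excitation, 540 nm emission), read at 5 min intervals over 30 min. Reaction: 100 nM EPAC1, 250 nM RAP1B-BODIPY-GDP, 50 uM GDP; ATA and DMSO define normalization.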
Note: nearly all actives have a fitted effect of over 75% in size.
Potency is the fitted concentration of half-maximal effect.
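Throughout, for activity change, negative = inhibition: plate controls were DMSO for no effect and ATA control for full effect.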

Sequence of UniProt O95398 (O95398 whole entry, looked up): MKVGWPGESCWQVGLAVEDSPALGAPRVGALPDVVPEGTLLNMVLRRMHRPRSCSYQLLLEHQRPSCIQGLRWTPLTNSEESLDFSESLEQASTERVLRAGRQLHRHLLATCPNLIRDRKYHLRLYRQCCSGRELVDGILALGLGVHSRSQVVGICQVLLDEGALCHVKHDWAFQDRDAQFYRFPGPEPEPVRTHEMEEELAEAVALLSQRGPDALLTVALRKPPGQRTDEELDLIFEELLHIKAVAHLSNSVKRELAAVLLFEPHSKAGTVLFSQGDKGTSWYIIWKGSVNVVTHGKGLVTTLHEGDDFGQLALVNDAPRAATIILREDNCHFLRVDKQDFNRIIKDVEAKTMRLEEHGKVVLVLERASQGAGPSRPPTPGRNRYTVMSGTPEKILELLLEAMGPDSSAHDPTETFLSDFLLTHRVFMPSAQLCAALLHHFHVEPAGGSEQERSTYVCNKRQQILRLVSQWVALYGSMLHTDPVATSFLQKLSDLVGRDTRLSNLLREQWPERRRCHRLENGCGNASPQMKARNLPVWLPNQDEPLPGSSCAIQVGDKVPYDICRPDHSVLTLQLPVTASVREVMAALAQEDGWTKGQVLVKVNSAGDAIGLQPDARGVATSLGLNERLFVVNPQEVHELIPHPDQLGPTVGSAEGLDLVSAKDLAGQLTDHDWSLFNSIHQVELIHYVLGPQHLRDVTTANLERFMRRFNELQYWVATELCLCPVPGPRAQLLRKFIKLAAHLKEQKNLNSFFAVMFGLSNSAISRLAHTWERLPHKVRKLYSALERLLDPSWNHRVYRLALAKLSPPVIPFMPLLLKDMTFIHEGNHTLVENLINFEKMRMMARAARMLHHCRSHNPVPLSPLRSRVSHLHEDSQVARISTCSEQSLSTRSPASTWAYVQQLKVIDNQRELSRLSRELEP

Compound | activity change, negative = inhibition | Potency
Cc1cc(O)c2c(O)c3c(O)cccc3cc2c1 | inactive: 5.03% | 
C=CCSCC1Nc2cc(Cl)c(S(N)(=O)=O)cc2S(=O)(=O)N1 (stereo not drawn) | inactive: 8.86% | 
CN1CC[C@@]2(CCCN(C(=O)c3cc(C(F)(F)F)cc(C(F)(F)F)c3)C2)C1 | inactive: 2.68% | 
COCCNc1nc(-c2ccc(N(C)C)cc2)nc2ccccc12 | inactive: 17.2% | 
COc1ccccc1CCn1c(=O)c(-c2ccc(Cl)cc2)nc2cncnc21 | inactive: -3.13% | 
COc1cccc(Nc2ncc3nc(-c4cn(C)c5ccccc45)c(=O)n(C[C@H]4CCCO4)c3n2)c1 | inactive: 44.2% | 
O=c1c(-c2cc(F)cc(F)c2)nc2cncnc2n1Cc1ccc(F)cc1 | inactive: -10.9% | 
O=C(O)C[C@H]1c2cc(F)ccc2S(=O)(=O)N1Cc1ccccc1 | inactive: -3.96% | 
CCCOc1ccc(C(=O)OCCN(CC)CC)cc1N | inactive: 30.8% | 
Cc1noc(C)c1C(=O)N1CCC2(CC1)CN(Cc1cc(C(F)(F)F)cc(C(F)(F)F)c1)C2 | inactive: 6.74% | 
Cn1cccc1C(=O)N1CCC2(CC1)CN(Cc1cc(C(F)(F)F)cc(C(F)(F)F)c1)C2 | inactive: -11.3% | 
Nc1nc2c(ncn2CCC(CO)CO)c(=O)[nH]1 | inactive: 15.5% | 
COc1ccc2cc(CNCc3ccccc3C(F)(F)F)c(N3CCCC(CO)C3)nc2c1 (stereo not drawn) | inactive: 8.84% | 
N#Cc1cccc(-c2ccc3ncnc(N4CCNCC4)c3c2)c1 | inactive: 2.65% | 
COC1C(O)C(O)C(O)C(O)C1O (stereo not drawn) | inactive: 15.1% | 
COC(=O)Nc1ccc2[nH]cc(CCNC(C)=O)c2c1 | inactive | 
CCC[C@H]1COCCS(=O)(=O)N1Cc1ccc(Br)cc1 | inactive: -29.5% | 
O=c1c(-c2ccc(Cl)cc2)nc2cnc(N3CCNCC3)nc2n1Cc1cccs1 | inactive: -14.9% | 
C=CCN1c2ccccc2C(=O)CS1(=O)=O | inactive: 14.9% | 
Nc1ccccc1C(=O)CC(N)C(=O)O (stereo not drawn) | inactive | 
CCCN1CCC(=O)N(CCOc2ccccc2)CC1 | inactive: -5.59% | 
CC(=O)OC1CC2C(C)(C)C(=O)CC[C@]2(C)C2CC[C@]3(C)C(=CC(=O)OC3c3ccoc3)[C@]12C (stereo partly drawn) | inactive: 8.46% | 

Compound | activity change, negative = inhibition | Potency
CS(=O)(=O)N1CCC[C@@]2(CCN(c3ncccn3)C2)C1 | inactive: 8.65% | 
CN1C2CCC1CC(OC(=O)C(O)c1ccccc1)C2 (stereo not drawn) | inactive | 
O=C(c1ccco1)N1CCC2(CC1)CCN(c1ccccc1)CC2 | inactive: 23.5% | 
CCN(CC)CCOCCOC(=O)C(CC)(CC)c1ccccc1 | inactive: -9.82% | 
CCC(Cc1c(I)cc(I)c(O)c1I)C(=O)O (stereo not drawn) | inactive: -11.7% | 
CCn1c2ccccc2c2cc(CN3CCOc4ccc(C(O)c5cccnc5)cc4C3)ccc21 (stereo not drawn) | inactive: -2.64% | 
CC1(C)Oc2ccc3ccc(=O)oc3c2CC1O (stereo not drawn) | inactive: 18.8% | 
CC[C@@H](CO)NCCN[C@@H](CC)CO | inactive: 7.19% [at 75.8 µM] | 
CCCCCCCCCCCCCC(=O)O[C@H](CC(=O)O)C[N+](C)(C)C | inactive: 2.67% | 
O=c1cc(-c2ccccc2)oc2c1ccc1ccccc12 | inactive: -7.73% | 
CC(CN(C)C)C(C)(O)Cc1ccc(Cl)cc1 (stereo not drawn) | inactive: 24.9% | 
C[C@]1(Cn2ccnn2)[C@H](C(=O)O)N2C(=O)C[C@H]2S1(=O)=O | inactive: 12.8% | 
Cn1cc(-c2nc3cnc(Oc4ccccc4)nc3n(C)c2=O)c2ccccc21 | inactive: 20.8% | 
CCCN1CCC(=O)N([C@H](COc2ccccc2)c2ccccc2)CC1 | inactive: 5.05% | 
COc1ncc2nc(-c3cc(F)cc(F)c3)c(=O)n(C[C@H]3CCCO3)c2n1 | inactive: 16.2% | 
CC1CN(CC(=O)N2CCN(Cc3nccn3C)CC2)Cc2cc(Cl)ccc2O1 (stereo not drawn) | inactive: 5.48% | 
CC(=O)OCC(=O)[C@@]1(OC(C)=O)[C@@H](C)C[C@H]2[C@@H]3C[C@H](F)C4=CC(=O)C=C[C@]4(C)[C@@]3(F)[C@@H](O)C[C@@]21C | inactive: 2.71% | 
O=C(C[n+]1cc(Br)cc2ccccc21)c1ccc(Br)cc1 | inactive: 17.6% | 
CC(N=C(NC#N)Nc1ccncc1)C(C)(C)C (stereo not drawn) | inactive | 
O=C(NCCN1CCCCC1)c1ccc(I)cc1 | inactive | 
COc1cc(OC)c(OC)cc1CN1CCOc2ccc(CN3CCN(C(C)=O)CC3)cc2C1 | inactive: 9.76% | 
C[n+]1ccc(/C=C/c2ccc3ccccc3c2)cc1 | inactive: 13.7% | 

Compound | activity change, negative = inhibition | Potency
CS(=O)(=O)N1CCC[C@@]2(CCN(C(=O)Nc3cccc(C#N)c3)C2)C1 | inactive: 7.87% | 
N#Cc1ccc(CN2CCC3(CC2)CCN(C(=O)c2cnccn2)CC3)cc1 | inactive: 24.6% | 
CC1=C(/C=C/C(C)=C\C=C\C(C)=C\C(=O)O)C(C)(C)CCC1 | inactive | 
Cc1nc(C)c(C(=O)NCc2nc(-c3cccc(NC(=O)c4ccccn4)c3)oc2C)s1 | inactive: -12.6% | 
CCCN1CCC(=O)N([C@H](CO)CC(C)C)CC1 | inactive: 6.63% | 
CCN1CCCC1CNC(=O)c1cnn(-c2nccc(-c3cccs3)n2)c1C(C)C (stereo not drawn) | inactive: 10% | 
COc1ccc2[nH]cc(CCNc3nc(-c4cccnc4)nc4ccccc34)c2c1 | inactive: -9.8% | 
N#Cc1cccc(NC(=O)N2CC[C@@]3(CCCN(C(=O)c4cnccn4)C3)C2)c1 | inactive: 7.6% | 
CCCCOC(=O)CC(CC(=O)OCCCC)(OC(C)=O)C(=O)OCCCC | inactive: -2.22% | 
O=S(=O)(NCc1ccccc1)[C@@H]1CC2C=CC1C2 (stereo partly drawn) | inactive: 0.734% | 
CSc1ccc(CN2CCOc3ccc(CN4CCCCC4CO)cc3C2)cc1 (stereo not drawn) | inactive: 4.25% | 
COCCn1c(=O)c(-c2cc(F)cc(F)c2)nc2cnc(N3CCOCC3)nc21 | inactive: 6.24% | 
c1cc2c3c(c1)CCCN3CCC2 | inactive: 14% | 
O=P(O)(O)OC(CO)CO | inactive: 18.5% | 
O=C(c1cccc(F)c1)N1CCC[C@@]2(CCN(c3ccccc3)C2)C1 | inactive: 21.5% | 
Nc1ncnc2c1nc(Sc1ccc(Cl)cc1)n2[C@H]1OC2COP(=O)(O)O[C@@H]2C1O (stereo partly drawn) |  | active: 316 nM
COc1ccc2c(=O)cc(-c3ccccc3)oc2c1O | inactive: -2.57% | 
Nc1ncnc2c1[nH]c(=O)n2C1OC(CO)C(O)C1O (stereo not drawn) | inactive: 14% | 
CCCCC(=O)NCCc1c(Cc2ccccc2)[nH]c2ccccc12 | inactive: 3.94% | 
Cc1cnc2ccccc2c1/C=C/c1ccc(N(C)C)cc1 | inactive: 1.35% | 
O=C(NCc1nnc2n1CCN(Cc1ccc(C(F)(F)F)cc1)CC2)c1cccc(F)c1 | inactive: 1.02% | 
CCNc1ncc2nc(-c3cccs3)c(=O)n(CCc3ccccc3)c2n1 | inactive: 16.7% | 

Compound | activity change, negative = inhibition | Potency
CC(=O)NCCNc1nc(-c2ccc(C(=O)N(C)C)cc2)nc2ccccc12 | inactive: -5.23% | 
C[N+]1(CC(=O)c2ccc(Oc3ccccc3)cc2)CCOCC1 | inactive: 9.33% | 
COc1ccc(-c2oc3cc(OC)c(OC(C)=O)c(OC)c3c(=O)c2OC)cc1OC(C)=O | inactive: 10.4% | 
CC(=O)O[C@H]1CC[C@@]2(C)C(=CC[C@H]3[C@@H]4CC[C@H](C(C)=O)[C@@]4(C)CC[C@@H]32)C1 | inactive: 8.34% | 
Cn1c(=O)[nH]c2nc[nH]c2c1=O | inactive: 10.8% | 
CN1CCN(c2ncc3nc(-c4ccccc4)c(=O)n(-c4ccccc4)c3n2)CC1 | inactive: 3.04% | 
Nc1ncnc(Nc2ccccc2)n1 | inactive: 15.8% | 
CCC1(C2CCN(Cc3ccccn3)CC2)NC(=O)N(CC2COc3ccccc3O2)C1=O (stereo not drawn) | inactive: 5.43% | 
O=C(c1cc(C(F)(F)F)cc(C(F)(F)F)c1)N1CCC2(CCCN(c3ccncc3)C2)CC1 | inactive: -8.13% | 
O=[N+]([O-])c1cccc2[nH]cnc12 | inactive: 2.36% | 
N#C/C(=C\c1ccc(O)c(O)c1)C(=O)NCc1ccccc1 | inactive | 
O=c1c(-c2cc(F)cc(F)c2)nc2cnc(N3CCOCC3)nc2n1C[C@H]1CCCO1 | inactive: 15.5% | 
O=C(/C=C/c1ccccc1)NCCO | inactive: -4.58% | 
CN(C)c1ccnc(-c2cccc(NS(C)(=O)=O)c2)n1 | inactive: 10.3% | 
N#CC(=C(\N)Sc1ccccc1N)/C(C#N)=C(/N)Sc1ccccc1N | inactive: 4.26% [at 75.8 µM] | 
CC(C)CCCC(C)NC(C)C (stereo not drawn) | inactive: 14.9% | 
C#C[C@]1(O)CC[C@H]2[C@@H]3CCC4=CC(=O)CC[C@@H]4[C@H]3CC[C@@]21CC | inactive: 13.2% | 
COc1cccc(-c2cc(NCc3cccs3)ncn2)c1 | inactive: -21.5% | 
COc1ncc2nc(-c3ccc(Cl)cc3)c(=O)n(C[C@H]3CCCO3)c2n1 | inactive: 3.04% | 
CC(CN(C)C)CN1c2ccccc2Sc2ccccc21 (stereo not drawn) | inactive: 16.4% | 
CC1(C)[C@@H](OC(=O)CCC(=O)O)CC[C@]2(C)[C@H]3C(=O)C=C4[C@@H]5C[C@@](C)(C(=O)O)CC[C@]5(C)CC[C@@]4(C)[C@]3(C)CC[C@@H]12 | inactive | 
COCCn1c(=O)c(C)nc2cnc(Oc3ccccc3)nc21 | inactive: 9.82% | 

Compound | activity change, negative = inhibition | Potency
CC(=O)N1CCC2(CC1)CN(C(=O)Nc1cccc(C#N)c1)C2 | inactive: 6.68% | 
COc1ccc(NC(=O)C2CC23CCN(Cc2cccc4ncccc24)CC3)cc1Cl (stereo not drawn) | inactive: 21.1% | 
COc1cc(O)ccc1C(C)=O | inactive: 10.6% | 
O=c1c(-c2cc(F)cc(F)c2)nc2cnc(N3CCOCC3)nc2n1Cc1ccc(F)cc1 | inactive: 24.9% | 
C#CCn1c(=O)c2c(ncn2C)n(C)c1=O | inactive | 
CCOC(C)OCC | inactive: 5.96% | 
C[C@@]12CCC3c4ccc(O)cc4CCC3C1CCC2O (stereo partly drawn) | inactive: 14% | 
CC(=O)Nc1ccccc1-c1nc(CNC(=O)c2ccc(C)cc2)c(C)o1 | inactive: -4.21% | 
NC[C@@H]1O[C@@H](O[C@H]2[C@@H](O)[C@H](O[C@@H]3[C@@H](O)[C@@H](N)C[C@H](N)[C@H]3O[C@H]3O[C@H](CN)[C@@H](O)[C@@H](O)[C@H]3N)O[C@H]2CO)[C@H](N)[C@@H](O)[C@@H]1O | inactive: 35.1% | 
CC(NC(=O)C1CC1)c1nnc2n1CCN(Cc1cccc(F)c1F)CC2 (stereo not drawn) | inactive: 2.02% | 
Cc1ncc2c(c1CNC(=O)c1ccc3c(c1)OCO3)CCN(C(=O)/C=C/c1ccccc1Cl)C2 | inactive: 1.43% | 
COc1ccc(-c2cc(=O)c3ccccc3o2)cc1OC | inactive: -4.63% | 
CC(=O)OCC(=O)[C@H]1CC[C@H]2[C@@H]3CCC4=CC(=O)CC[C@]4(C)[C@H]3CC[C@]12C | inactive: -3.22% | 
c1ccc(-c2onc(-c3ccco3)c2-c2ccc3[nH]ccc3c2)cc1 | inactive: 9.12% | 
CN(C)C(=O)c1ccc(-c2cncnc2NCCc2cnc[nH]2)cc1 | inactive: -2.46% | 
C=CCSCC=C | inactive: 12.4% | 
O=C(C[n+]1ccncc1)c1ccc2c(c1)CCCC2 | inactive: 18.3% | 
O=C(O)CCC(=O)C(=O)O | inactive: 3.46% | 
OC1CCC2Cc3ccccc3N=C12 (stereo not drawn) | inactive: -1.74% | 
O=C(Nc1ccccc1)N1CCC2(CC1)CCN(C(=O)c1ccco1)CC2 | inactive: 7.53% | 
